Laboratory results taken from patent US20220119459A1 (OXFORD UNIVERSITY INNOVATION, published 2022).

T1: peptide containing SpyTag002 (KGVPTIVMVDAYKRYK)
T1 construct: also called SpyTag002 peptide
T1 peptide: KGVPTIVMVDAYKRYK


What was measured:
SpyTag002-MBP = biological target: T2, SpyTag002-MBP; test: second-order rate of isopeptide bond formation, SDS-PAGE densitometry; succinate-phosphate-glycine buffer pH 7.0, 25 °C; mean ± 1 s.d., n = 3
T2 construct: not shown: made by QuikChange from pET28a SpyTag-MBP

SpyTag-MBP = biological target: T3, SpyTag-MBP; test: as above
T3 construct: also called WT SpyTag-MBP; not shown: pET28a SpyTag-MBP, Addgene plasmid ID 35050; limits, linker and purification tag not stat

[1] = biological target: T1, peptide containing SpyTag002 …; test: electrospray ionization mass spectrometry; 95 µM SpyCatcher002 with 220 µM peptide, 3 h, 25 °C, PBS pH 7.5

Binder | Rate constant (SpyTag002-MBP) | Rate constant (SpyTag-MBP) | binding result [1]
SpyCatcher (designed binder, also called WT SpyCatcher; wt SpyCatcher) not shown | 10300 M⁻¹ s⁻¹ | 1680 M⁻¹ s⁻¹ | –
SpyCatcher002 (designed binder, also called SC002; D5T SpyCatcher002) not shown | 20200 M⁻¹ s⁻¹ | 5470 M⁻¹ s⁻¹ | binds
